In article PMC4336329 (PLoS ONE, 2015):
Among all 310,000 compounds or so, about 2,200 (0.71%) showed an effect of 50% or more. The effect is printed as a negative number. The list shows a part of the results.

These compounds were tested against human ether-à-go-go-related gene (hERG) potassium channel (human, UniProt Q12809) (assay: primary screen, population patch clamp on CHO cells stably expressing hERG).
Sequence of human ether-à-go-go-related gene (hERG) potassium channel (Q12809 whole entry, looked up): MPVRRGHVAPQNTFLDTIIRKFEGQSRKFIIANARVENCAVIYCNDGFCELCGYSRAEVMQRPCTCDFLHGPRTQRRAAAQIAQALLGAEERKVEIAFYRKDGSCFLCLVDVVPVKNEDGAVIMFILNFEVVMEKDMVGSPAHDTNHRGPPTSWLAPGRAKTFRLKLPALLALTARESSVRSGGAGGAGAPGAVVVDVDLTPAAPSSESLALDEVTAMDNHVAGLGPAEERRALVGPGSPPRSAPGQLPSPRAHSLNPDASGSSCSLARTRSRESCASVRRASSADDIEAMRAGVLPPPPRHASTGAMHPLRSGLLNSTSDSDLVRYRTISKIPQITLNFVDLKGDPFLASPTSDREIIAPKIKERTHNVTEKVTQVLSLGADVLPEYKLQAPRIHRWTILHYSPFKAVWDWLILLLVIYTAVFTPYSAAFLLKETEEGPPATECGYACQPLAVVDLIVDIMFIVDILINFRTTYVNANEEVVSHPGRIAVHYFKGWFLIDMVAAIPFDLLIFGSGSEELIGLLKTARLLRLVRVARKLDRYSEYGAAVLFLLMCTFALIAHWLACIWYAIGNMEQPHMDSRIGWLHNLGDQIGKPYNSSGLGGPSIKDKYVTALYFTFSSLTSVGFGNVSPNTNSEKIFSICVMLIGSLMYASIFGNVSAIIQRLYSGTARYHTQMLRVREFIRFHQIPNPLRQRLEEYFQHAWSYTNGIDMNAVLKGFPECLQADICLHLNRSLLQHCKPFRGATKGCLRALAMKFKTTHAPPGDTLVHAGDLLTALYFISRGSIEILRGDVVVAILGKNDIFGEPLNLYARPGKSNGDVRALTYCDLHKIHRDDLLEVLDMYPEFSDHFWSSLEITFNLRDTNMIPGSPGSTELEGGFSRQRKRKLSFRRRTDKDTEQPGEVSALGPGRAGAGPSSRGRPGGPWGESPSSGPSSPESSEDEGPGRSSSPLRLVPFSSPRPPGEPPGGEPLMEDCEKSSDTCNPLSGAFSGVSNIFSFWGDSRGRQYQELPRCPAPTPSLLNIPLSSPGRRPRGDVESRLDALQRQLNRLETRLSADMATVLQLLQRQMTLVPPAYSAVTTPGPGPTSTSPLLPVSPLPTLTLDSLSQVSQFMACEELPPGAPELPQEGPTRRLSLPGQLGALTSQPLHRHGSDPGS

| SMILES | hERG current change (%, negative = inhibition) at 1uM [%] |
| --- | --- |
| Cc1noc(C)c1C(=O)Nc1ccc(F)c(F)c1 | 14.5 |
| CCN(CCn1cccn1)Cc1cn[nH]c1-c1ccc(-c2ccccc2)cc1 | 17.6 |
| COC(=O)c1cccc(C(=O)N2CCCC(C(=O)c3ccccc3OC)C2)c1 (stereo not shown) | -8.92 |
| CCOC(=O)Cc1csc(NC(=O)c2cccc(Cl)c2)n1 | 7.67 |
| Cc1ccc(OCCCCn2ccnc2C)c(C)c1.O=C(O)C(=O)O | 2.16 |
| O=C(COC(=O)c1cnccn1)c1ccc(C2CCCCC2)cc1 | 8.28 |
| Cc1cccc(OCC(=O)O/N=C(\N)Cc2cccs2)c1 | 12 |
| COc1cc(NC(=O)CCc2c(C)[nH]c(=O)c(C#N)c2C)cc(OC)c1 | 13.3 |
| CC1CN(c2cc([N+](=O)[O-])ccc2Cl)CC(C)N1 (stereo not shown) | -12.7 |
| CCOc1cc(/C=C2/C(=O)N(c3ccccc3)N=C2C)ccc1OC(=O)c1ccco1 | 9.52 |
| CCN(CC)S(=O)(=O)c1ccc(Cl)c(NC(=O)c2ccc(C#N)cc2)c1 | 8.99 |
| CCN(CC)C(=O)CN1C(=O)C2(OCC(C)(c3ccccc3)CO2)c2ccccc21 (stereo not shown) | 2.44 |
| O=c1[nH]c(CSc2nnc3ccccn23)nc2cc(C(F)(F)F)ccc12 | 3.39 |
| CC1CC(NC(=O)C2(C)CC2(Cl)Cl)CC(C)(C)C1 (stereo not shown) | 7.26 |
| COc1cccc(C(=O)N(CN2CCCC2=O)c2ccccc2OC)c1 | 1.44 |
| CCOC(=O)c1c(/N=C/c2c(O)n(-c3cccc(C)c3)c(=O)[nH]c2=O)sc2c1CCCC2 | 11.9 |
| CCN(CC)c1ccc(C(=O)N/N=C/c2ccc(OC)cc2OC)cc1 | 32.7 |
| O=C(/C=C/Nc1ccc(OC(F)(F)F)cc1)C(F)(F)F | -18 |
| CCN(CC)CCCNC(=O)C(C)Sc1nc(-c2ccccc2)cc(C(F)(F)F)n1 (stereo not shown) | -1.74 |
| COc1ccc(N2C(=O)C(Cl)=C(Nc3ccc(OC)cc3OC)C2=O)cc1 | -0.76 |
| COc1ccc(S(=O)(=O)Nc2nncs2)cc1 | 7.67 |
| COc1cc2cc(C)c(SCC(=O)N3CCOCC3)nc2cc1OC | 12.3 |
| COc1ccc(OC)c(-c2nc(C(=O)NCCCN3CCOCC3)cc3c2[nH]c2ccccc23)c1 | -21.7 |
| Cc1ccc(S(=O)(=O)NC(C)(C)CSc2nncn2C)cc1 | 1.92 |
| c1ccc(CN2CCc3nc4ccccc4cc3C2)cc1 | 11.2 |
